This note sets out measurements from ChEMBL document CHEMBL4888484, “Replenishing the malaria drug discovery pipeline: Screening and hit evaluation of the MMV Hit Generation Library 1 (HGL1) against asexual blood stage Plasmodium falciparum ,using a nano luciferase reporter read-out” (2022).

Out of some 150,000 compounds screened, about 540 (0.36%) showed an effect of 50% or more. The list shows a part of the results.

The experiment has as its system Plasmodium falciparum. The experiment is described as follows: Primary screen in NF54 nanoGlo assay, in single point, at 2uM, 72h; a lower Z score goes with more inhibition. To be noted: timepoint 72 hour. In kind it is functional, Erythrocyte.
What is called % Inhibition is the change of the read-out against control, counted positive when it falls. Consider `Cc1ccc(C)c(CNC(=O)[C@@H]2CCCCc3n[nH]c(=O)n32)c1`, for which the “% Inhibition” value is given as -15% and the Z score amounted to 1.47.
Consider `CCc1ncncc1C(=O)N1CCc2ccc(Br)cc21`, for which the “% Inhibition” value was 8% and the Z score is recorded as -1.06.
The like results for `O=C1COc2cccnc2N1Cc1nccs1` were, in that order, -7% and 1.18.
The like results for `C[C@H]1CCN(C(=O)NCc2nccc(C(F)F)n2)[C@@H](C)C1` were, in that order, -9% and 1.77.
The like results for `COc1cc(-c2cccc(C(=O)N[C@H]3CCS(=O)(=O)C3)c2)nc(OC)n1` were, in that order, -3% and 0.51.
Regarding `O=C(NCc1ccccc1Cl)c1nn(-c2ccccc2)c(=O)c2ccccc12`, the “% Inhibition” value is recorded as -14% and the Z score is listed as 2.2.
For `FC(F)(F)Oc1ccc(Nc2nc(N3CCCCC3)nc(N3CCN(c4cccc(Cl)c4)CC3)n2)cc1` the same measures were -10% and 1.26.
For `O=C1CCC(=O)n2ncc(-c3ccc(Cl)cc3)c2N1` the same measures were 2% and -0.2.
For `Cc1nc(C2CCOCC2)n([C@H]2CCN(S(=O)(=O)c3cc(F)cc(F)c3)C2)n1` the same measures were -5% and 0.63.
With `COc1cccc(CN2C(=O)N[C@@](C)(C3CCN(C(=O)c4cccnc4OC)CC3)C2=O)c1OC`, the “% Inhibition” value is recorded as 8% and the Z score is -1.05.
For `CN1C[C@@H](O)CNS(=O)(=O)c2ccc(-c3cnn(C)c3)cc2O[C@H]2CN(Cc3nccn3C)C[C@H]21` the same measures were -1% and 0.14.
For `CCN(CC)c1nc(=O)c2c(ncn2Cc2cccc(OC)c2)c(=O)[nH]1` the same measures were -7% and 1.03.
The like results for `CC(=O)Nc1ccn([C@H]2CCN(Cc3ccnc(C#N)c3)C2)n1` were, in that order, -8% and 1.15.
Consider `Cc1nc2oc(-c3ccccc3)nc2cc1NC(=O)c1cccc(Br)c1`, for which the “% Inhibition” value is on record as -9% and the Z score is given as 1.09.
For `Cc1ocnc1Cn1nnc([C@@H](NC(=O)c2ccccc2)C2CC2)n1` the same measures were -12% and 1.04.
For `O=C(Nc1ccc(C(F)(F)F)cc1)[C@@H]1CCN(c2ccccc2Br)C1=O` the same measures were 7% and -1.36.
The like results for `Cc1occc1C(=O)Nc1cccc2ccccc12` were, in that order, -5% and 0.59.
For `CC1c2ccccc2OC1C(=O)Nc1cnccn1` (stereo unspecified), the “% Inhibition” value is on record as -12% and the Z score was 1.16.
For `O=S(=O)(c1ccc(Cl)cc1)[C@H]1CCN(S(=O)(=O)c2cc(F)ccc2F)C1` the same measures were 10% and -1.8.
The like results for `CCc1nc2c(N3CCC[C@@]4(CCOC4)C3)ncnc2o1` were, in that order, 15% and -2.
For `O=C1CN(C(=O)[C@@H]2COc3ccccc3O2)CN1CC1CC1` the same measures were -13% and 1.99.
Regarding `CCC(CC)(CCO)CNC(=O)c1ccncc1Cl`, the “% Inhibition” value was -6% and the Z score came out at 0.63.
The like results for `c1ccc2c(c1)C[C@H](CNCc1cnc(N3CCOCC3)nc1)CO2` were, in that order, -4% and 0.63.
For `CC(C)(C)c1nc(CNS(=O)(=O)C[C@H]2CCCCC2(F)F)n[nH]1` the same measures were 2% and -0.38.
For `Cc1cccc(C)c1Nc1c(-c2ccccn2)nc2ncccn12` the same measures were -15% and 2.27.
Take `O=C(c1ccncc1)N(c1cccc(F)c1)C1CCOCC1`: the “% Inhibition” value came out at 5% and the Z score is listed as -0.6.
For `Cc1cccc(C)c1C(=O)NC1CCN(C(=O)c2cn[nH]c2)CC1` the same measures were -11% and 1.48.
For `CN(Cc1cnc2ccccc2c1)C[C@H]1CCCN1C` the same measures were -10% and 1.03.
With `COCCN1CCN(C(=O)c2ccc(C#N)s2)CC1=O`, the “% Inhibition” value is -12% and the Z score was 1.52.
As to `CCN=C(NCc1ncnn1C)N1CCN(c2cccc(C)c2)CC1`, the “% Inhibition” value is 0% and the Z score came out at 0.06.
The like results for `Cc1cc(C(=O)N2CCC[C@H](Nc3ccc4c(c3)OCCO4)C2)nn1C` were, in that order, -24% and 2.14.
For `Cn1ccnc1C(NS(=O)(=O)N1CC2CCC1C2)C(C)(C)CO` (stereo unspecified) the same measures were -2% and 0.18.
The like results for `Cc1cc(C(=O)NC2CCCCCC2)sc1C` were, in that order, 0% and 0.04.
As for `Cc1ccsc1C(=O)N[C@H]1CCN(CC(=O)N(C)C)C[C@@H]1O`, the “% Inhibition” value was -5% and the Z score was found to be 0.78.
Turning to `COCC(=O)N[C@@H]1CN(C(=O)Cc2cccc(C(C)C)c2)C[C@H]1c1nccn1C`, the “% Inhibition” value is listed as -7% and the Z score is reported as 1.06.
In the case of `O=C(NC[C@@H](CO)CC1CCCC1)C1=COCCO1`, the “% Inhibition” value is on record as -13% and the Z score stood at 2.39.
The like results for `COc1cccc([C@H]2Nc3ccccc3-n3cc4c(=O)n(C)c(=O)n(C)c4c32)c1` were, in that order, 2% and -0.32.
The like results for `CC(C)C1(CNC(=O)Nc2nn[nH]c2C(N)=O)CC1` were, in that order, -7% and 0.94.
For `Cc1cnn(CCC(=O)Nc2nnc(CC3CCCCC3)s2)c1` the same measures were 0% and -0.02.
As for `O=C(Nc1ccc(F)c(F)c1F)c1cc(O)ncn1`, the “% Inhibition” value is -5% and the Z score amounted to 0.79.
The like results for `Cc1ccc(OC(=O)c2ccccc2N2C(=O)c3ccccc3C2=O)cc1C` were, in that order, 0% and 0.
The like results for `CS(=O)(=O)NCCCn1ccc2cccnc21` were, in that order, -14% and 2.18.
For `Cc1noc(C(C)(C)NC(=O)Nc2c[nH]nc2-c2nccs2)n1` the same measures were 37% and -5.4.
Turning to `NC(=O)CO[C@@H]1CO[C@H]2[C@@H]1OC[C@@H]2NC(=O)NCc1ccccc1`, the “% Inhibition” value is 25% and the Z score is on record as -2.83.
For `CN(C)c1nc(CNC(=O)Cn2cncn2)nc(N2CCOCC2)n1` the same measures were -18% and 2.3.
Consider `Cc1cnc(COC(=O)CN(C)C(=O)OCc2ccccc2)o1`, for which the “% Inhibition” value is listed as -2% and the Z score is reported as 0.36.
For `CC(=O)N[C@@H](CCC(N)=O)C(=O)N(C)c1ccc(C(C)(C)C)cc1` the same measures were -10% and 1.65.
For `COC[C@H]1[C@H](NC(=O)c2csc(C(C)C)c2)[C@H]2CCO[C@H]21` the same measures were -3% and 0.59.
The like results for `CCn1cnnc1[C@H](C)NC(=O)Nc1cc(NS(C)(=O)=O)ccc1F` were, in that order, -17% and 2.12.
As for `COC(=O)c1cccn1C(=O)c1ccc(Cl)cc1`, the “% Inhibition” value was -6% and the Z score stood at 0.77.
Take `COc1ccc(CNC(=O)CN2c3ccccc3S(=O)(=O)c3ccccc32)cc1`: the “% Inhibition” value is listed as -5% and the Z score is given as 0.57.
For `CN(CCO)CCN(C)C(=O)Nc1nc2c(s1)CCCC2(C)C` the same measures were -4% and 0.86.
The like results for `Clc1cnc(N2CCCN(c3ccc4nncn4n3)CC2)nc1` were, in that order, -21% and 2.4.
On to `CCc1ncc(CN2CC[C@@]3(CCCN(Cc4cccc(OC)c4)C3=O)C2)cn1`, for which the “% Inhibition” value was found to be 6% and the Z score is given as -0.83.
Turning to `Cc1cc(NC(=O)CCC2CCC(C)O2)nc(=O)[nH]1` (stereo unspecified), the “% Inhibition” value is -7% and the Z score came to 1.07.
For `O=C(CO)N[C@H]1CCCC[C@H]1C(F)(F)F` the same measures were -9% and 1.15.
In the case of `NC(=O)C1CN(c2nc3ccccc3s2)CC1C(N)=O` (stereo unspecified), the “% Inhibition” value was determined as 28% and the Z score was -3.2.
For `COc1cccc(N2CCN(C(=O)c3ccc4c(c3)N(Cc3ccccc3)C(=O)CO4)CC2)c1` the same measures were -8% and 1.01.
For `CC[C@H](C)NC(=O)c1ccc(OCC2CCOCC2)nc1`, the “% Inhibition” value is given as -14% and the Z score was 2.67.
For `COc1nn(C)cc1C(=O)Nc1nnc(C)s1` the same measures were 3% and -0.39.
The like results for `CCN1CCN(CCCNc2ncnc3onc(-c4cccc(Cl)c4)c23)CC1` were, in that order, 3% and -0.44.
For `CC(C)[C@H](NS(=O)(=O)c1cccc(Cl)c1)C(=O)NCC1(S(C)(=O)=O)CC1` the same measures were 32% and -3.58.
On to `COC(=O)c1cccc(CN2CCC[C@H](C(=O)N3CCCC3)C2)n1`, for which the “% Inhibition” value was -2% and the Z score worked out at 0.42.
The like results for `O=C(Cn1c(=O)sc2cc(S(=O)(=O)N[C@H]3CCCc4ccccc43)ccc21)N1CCCC1` were, in that order, 15% and -1.78.
The like results for `CCC(C(=O)N1CCN(C(C#N)C(C)C)CC1)N1CCCC1=O` (stereo unspecified) were, in that order, -11% and 0.89.
The like results for `Clc1ccc(COc2ccc(CNCc3ccccn3)cc2)cc1` were, in that order, -14% and 2.76.
For `COc1ccc(C(=O)Nc2ccc(C3OC(=O)N(Cc4ccc(F)cc4)C3C(=O)NCC(C)C)cc2)cc1` (stereo unspecified), the “% Inhibition” value was -5% and the Z score was 0.69.
For `CCn1c(-c2nccn2CCO)nc2ccccc21` the same measures were -10% and 2.03.
The like results for `Cc1ccc(NC(=O)N2CC[C@H](Oc3ncccc3C(=O)N3CCCCC3)C2)c(Cl)c1` were, in that order, -14% and 2.29.
The like results for `Cc1nnc(-c2cc3cc(Oc4ccccc4)ccc3[nH]2)s1` were, in that order, 1% and -0.11.
As for `COc1ccc([C@H](CO)N(C)CCCOC(C)C)cc1`, the “% Inhibition” value is -6% and the Z score came out at 0.52.
The like results for `CN(Cc1ccccc1)C(=O)N1CCN2C(=O)C(=O)NC[C@H]2C1` were, in that order, -12% and 1.18.
For `CCCc1cc(N[C@@H]2C[C@@H](C(=O)NC)N(C3CCOCC3)C2)nc(C)n1` the same measures were 0% and 0.09.
For `O=C1NC[C@H]2O[C@H](CCOc3cc(-c4ccccc4)ccc3C(=O)N3CCN(Cc4ccc5c(c4)OCO5)C[C@@H]13)CC[C@@H]2O` the same measures were 26% and -2.97.
As for `COc1ccc(NC(=O)Cc2ccc(N(Cc3cccc(F)c3)C(=O)CC(C)C)cc2)cc1`, the “% Inhibition” value is given as -16% and the Z score is 1.55.
The like results for `O=C(c1cccnc1)N1CC(c2noc([C@@H]3CCCN3CC3CC3)n2)C1` were, in that order, 6% and -0.7.
On to `Cc1ccc(-n2ncc(C#N)c2N(Cc2ccc(F)c(F)c2)Cc2ccc(F)c(F)c2)cc1`, for which the “% Inhibition” value is listed as -8% and the Z score came to 0.94.
For `Cc1cc(C)n(-c2ncc(NC(=O)COc3ccc(-n4cccn4)nn3)cn2)n1` the same measures were -6% and 1.19.
In the case of `CC(C)C(=O)N1CCc2cc(S(=O)(=O)N3CCOCC3)ccc21`, the “% Inhibition” value is -17% and the Z score stood at 1.54.
Consider `C[C@@H](CN1CCCCCC1)NCCCc1ccccc1`, for which the “% Inhibition” value was -5% and the Z score stood at 0.79.
The like results for `CC1OCCC1NCc1cc(Cl)c2c(c1)OCO2` (stereo unspecified) were, in that order, 2% and -0.28.
For `COc1cc(CN(C)Cc2nnn(C(C)(C)C)n2)sn1` the same measures were -13% and 1.17.
The like results for `O=C1C(=O)N(Cc2ccc3ccccc3c2)c2ccc(Br)cc21` were, in that order, 4% and -0.51.
